What was measured:
[1] = target: T1, monomeric huBDCA2 ectodomain (human, UniProt Q8WTT0 45-213); assay: Octet, mAb from conditioned medium on anti-human Fc tips, monomeric huBDCA2 in solution
T1 construct: Prepared by proteolytic cleavage of the purified muIgG2a Fc-huBDCA2 fusion protein (pEAG2423); also called human BDCA2 ectodomain; human BDCA2 ECD
T1 sequence: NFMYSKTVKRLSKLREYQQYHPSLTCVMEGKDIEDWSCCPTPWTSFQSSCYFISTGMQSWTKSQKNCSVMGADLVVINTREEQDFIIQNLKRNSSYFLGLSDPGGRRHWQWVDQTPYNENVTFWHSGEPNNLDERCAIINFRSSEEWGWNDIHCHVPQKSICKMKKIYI
Description: The monomeric huBDCA2 ectodomain was prepared by proteolytic cleavage from the purified muIgG2a Fc-huBDCA2 fusion protein (relevant plasmid: pEAG2423). Antibodies from conditioned medium from transiently transfected cells were bound to anti-human Fc tips, and then monomeric huBDCA2 was flowed over the Octet tips, to examine binding and dissociation.

[2] = target: T2, human BDCA2 (full-length, cell surface) (human, UniProt Q8WTT0 1-213); assay: direct binding FACS, conditioned medium on CHO cells co-expressing human BDCA2 and FcεRIγ; column C (midpoint) of the printed 4-P fit, X in ng/ml; A 4.51, B 0.716, D 599, R^2 1; the fit is extrapolated: the highest point drawn is at about 150 ng/ml with MFI about 63, no plateau
T2 construct: also called huBDCA2; surface human BDCA2
T2 sequence: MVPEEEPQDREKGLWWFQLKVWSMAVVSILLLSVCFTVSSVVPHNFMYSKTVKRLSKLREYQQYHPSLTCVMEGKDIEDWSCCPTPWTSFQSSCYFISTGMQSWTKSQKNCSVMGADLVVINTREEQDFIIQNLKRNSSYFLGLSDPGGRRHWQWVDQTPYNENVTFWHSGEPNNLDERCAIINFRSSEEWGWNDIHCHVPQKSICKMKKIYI
Description: (§1) Conditioned medium was assayed by direct binding FACS on stably transfected DG44 CHO cells co-expressing full-length BDCA2 and FcεRIγ cDNAs (human or cynomolgus monkey), (relevant expression vectors are human BDCA2/FcεRIγ: pEAG2456, cyno BDCA2/FcεRIγ: pEAG2668).

[3] = target: T3, cynomolgus monkey BDCA2 (full-length, cell surface, E73 SNP form) (cynomolgus monkey, UniProt Q8WTT0 1-213 (human entry)); assay: direct binding FACS, conditioned medium on CHO cells co-expressing cynomolgus BDCA2 and FcεRIγ; column C (midpoint) of the printed 4-P fit, X in ng/ml; A 2.08, B 0.737, D 8.51E+03, R^2 1; the fit is extrapolated: the highest point drawn is at about 150 ng/ml with MFI about 46, no plateau
T3 construct: also called cyno BDCA2; surface cynomolgus monkey BDCA2
T3 chain: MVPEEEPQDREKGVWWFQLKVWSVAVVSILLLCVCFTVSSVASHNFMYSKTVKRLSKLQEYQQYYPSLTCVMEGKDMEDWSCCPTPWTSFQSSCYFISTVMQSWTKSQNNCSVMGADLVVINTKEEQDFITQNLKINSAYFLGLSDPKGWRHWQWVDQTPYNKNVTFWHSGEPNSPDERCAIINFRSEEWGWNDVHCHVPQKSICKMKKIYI
Description: as §1

- Kd [1]: 2.17 nM
- koff [1]: 0.00349 s⁻¹
- kon [1]: 1.61e+06 M⁻¹ s⁻¹
- EC50 [2]: 3.52 µg/mL
- EC50 [3]: 200 µg/mL
B1: ch24F4-huIgG1, kappa mAb (antibody)
heavy: DVKLVESGGGLVKPGGSLKLSCAASGFTFSTYTMSWVRQTPEKRLEWVATISPGDSFGYYYPDSVQGRFTISRDNAKNTLFLQMSSLKSEDTAMYYCTRDIYYNYGAWFAYWGQGTLVTVSA[human IgG1 constant region not written out]
light: DIVLTQSPASLAVSLGQRATISCKASQSVDYDGDSYMNWYQQKPGQPPKLLIYAASTLESGVPARFSGSGSGTDFTLNIHPVEEEDAATYYCQQCNEDPRTFGGGTKLEIKRTVAAPSVFIFPPSDEQLKSGTASVVCLLNNFYPREAKVQWKVDNALQSGNSQESVTEQDSKDSTYSLSSTLTLSKADYEKHKVYACEVTHQGLSSPVTKSFNRGEC
notes: pYL672/pYL671; also called wildtype ch24F4; Chimeric 24F4

Reference: patent publication US20180362652A1 (Biogen, published 2018)
